Test results from PubChem BioAssay AID1345083 (National Center for Advancing Translational Sciences (NCATS), 2018).
Among all 94,000 compounds or so, about 6,200 (6.6%) were called active. Inconclusive results, whose numbers are uncertain, are shown with a selection of clear calls. Calls follow the shape of the dose curve; as a rule, active = well fitted inhibition curve with a large enough effect; inconclusive = small, poorly fitted or top-dose-only effect; inactive = flat fitted curve, though single readings scatter. Where the call is inconclusive, the potency comes from a doubtful curve fit.

assay: Cytotoxic Profiling in HEK 293 Cell Line of Diverse Libraries Using Quantitative High-Throughput Screening; conditions: HEK 293 viability, ATP luminescence (CellTiter-Glo), 48-72 h; activity change, negative = cytotoxicity: at 115 µM (top of the series) unless noted; series mostly up to 115 µM; also: nearly all actives have a fitted effect of over 60% in size
Procedure, shortened: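 HEK 293 cells seeded at 250 cells/well were exposed to compound for 48 or 72 hr at 37 degree Celsius. Viability taken as ATP content by CellTiter-Glo luminescence.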
% is scaled to controls: 0 for no effect and ±100 for the full control effect; potency is read from the fitted curve at half-maximal effect; tags tell the direction and shape of the fitted curve.

| Structure (SMILES) | Potency | activity change, negative = cytotoxicity | outcome |
| --- | --- | --- | --- |
| O=C(NCC1CC1)C1CCN(Cc2ccccc2-c2ccccc2F)CC1 | inconclusive: 89.1 µM [inhibitor, single point] |  |  |
| COc1ccccc1Cn1c(=O)c(C(=O)N2CCC(c3ccccc3)CC2)nc2cccnc21 | inconclusive: 25.1 µM [inhibitor, full curve] |  |  |
| COc1ccc(C(=O)N2CCC(N3CC4CC(C3)[C@H]3CCCC(=O)N3C4)CC2)cc1 (stereo partly specified) |  | inactive: 0.195% |  |
| CC(C)CN1C(=O)COC[C@@H]1[C@H](O)c1ccc(NC(=O)COc2ccccc2)cc1 |  | inactive: -15.4% [at 172 µM] |  |
| Cc1cc(-c2cc3c(cn2)CN(Cc2cccs2)CCN3)ccn1 | active: 89.1 µM |  |  |
| COCC1CN(C)CC12CCN(C(=O)c1cc(C)cc(C)c1)CC2 (stereo unspecified) | inconclusive: 89.1 µM [inhibitor, partial curve, poor fit] |  |  |
| CC(=O)Nc1cccc(-c2ccc(COc3ccc4c(cnn4CCC(=O)O)c3)cc2)c1 | inconclusive: 112 µM [inhibitor, partial curve, poor fit] |  |  |
| COCC(=O)N[C@@H]1CN(Cc2ccccc2F)C[C@H]1CO |  |  | inactive |
| CCOC(=O)C1CCN(C(=O)CC(c2ccc3c(c2)OCO3)c2c[nH]c3ccccc23)CC1 (stereo unspecified) | inconclusive: 31.6 µM [inhibitor, full curve] |  |  |
| Cc1ccc(-c2cnc([C@@H]3COCCN3CC3CC3)[nH]2)cc1 | active: 63.1 µM |  |  |
| Cc1ccc(C)c(C(=O)N2CCCN(C)c3ccccc32)c1 | inconclusive: 50.1 µM [inhibitor, partial curve, poor fit] |  |  |
| Cc1c(F)cccc1NC(=O)N1C[C@@H](F)C[C@H]1C(=O)N1CCOCC1 |  | inactive: 6.57% |  |
| CCOc1cccc(CN2CCCCC23Cc2ccccc2CNC3=O)c1 (stereo unspecified) | inconclusive: 79.4 µM [inhibitor, partial curve, poor fit] |  |  |
| O=C1COc2ccc(-c3cn[nH]c3)nc2CN1Cc1ccccc1 | inconclusive: 70.8 µM [inhibitor, partial curve] |  |  |
| CN1CCCN(C(=O)c2ccsc2)c2ccccc21 | inconclusive: 100 µM [inhibitor, single point] |  |  |
| Cc1noc(C)c1C(=O)N1CCC2(CC1)CC(c1cccc(C(F)(F)F)c1)=NO2 |  | inactive: -14.1% |  |
| CN(C)C[C@@H]1CN(c2ncccn2)C[C@H]1NS(=O)(=O)Cc1ccc(F)cc1 |  |  | inactive |
| COc1ccc(-c2nnc([C@H]3CCN(S(C)(=O)=O)C3)o2)cc1 |  |  | inactive [at 172 µM] |
| O=C(C1CCC1)N1CCOc2ccc(CN3CCc4ccccc4C3)cc2C1 | inconclusive: 44.7 µM [inhibitor, partial curve] |  |  |
| COCCn1ccc2c(C3=CCOCC3)nc(-c3ccc4cn[nH]c4c3)cc21 | inconclusive: 70.8 µM [inhibitor, partial curve, poor fit] |  |  |
| O=C(NCCN1CCCC1)c1ccc(-c2ccc(N3CCSCC3)nc2)cc1 | inconclusive: 50.1 µM [inhibitor, partial curve, poor fit] |  |  |
| N#Cc1ccc(NCc2cc3n(n2)CCCN(C2CCCCC2)C3)nc1 |  | inactive: -7.16% |  |

| Structure (SMILES) | Potency | activity change, negative = cytotoxicity | outcome |
| --- | --- | --- | --- |
| O=C(NC1CCN(c2cc(-c3ccc(F)cc3)[nH]n2)C1)c1cc(Cl)ccc1F (stereo unspecified) | inconclusive: 44.7 µM [inhibitor, partial curve, poor fit] |  |  |
| Cc1ccccc1C(=O)N1CCN(c2ccc3nnc(-c4ccccc4)n3n2)CC1 |  | inactive: -31% |  |
| CO[C@H]1C(=O)N(C)C2(CCN(C(=O)C3CCCCC3)CC2)[C@@H]1C(=O)N(C)c1ccccc1 |  | inactive: -3.4% |  |
| Cc1ccccc1CN1CC[C@@H]2OCC(=O)N(Cc3cccc(C(N)=O)c3)[C@H]2CC1 | inconclusive: 112 µM [inhibitor, partial curve] |  |  |
| OCC1(CCCc2ccccc2)CCCNC1 (stereo unspecified) | inconclusive: 44.7 µM [inhibitor, partial curve, poor fit] |  |  |
| COc1ccc(CN2Cc3[nH]cnc3C[C@H]2c2nc(-c3ccc4ccccc4c3)no2)cc1 | active: 44.7 µM |  |  |
| CN(CC1CCOCC1)S(=O)(=O)c1ccc(Cl)s1 |  | inactive: -21.5% |  |
| CCOc1ccc(CN2C[C@@H]3C(=O)N(CCc4ccccc4)C(=O)[C@@H]3C2)cc1OC | inconclusive: 50.1 µM [inhibitor, partial curve, poor fit] |  |  |
| COc1cccc(CN2CCCC3(CNc4ccccc4[S+](=O)([O-])N3)C2)c1 (stereo unspecified) | inconclusive: 89.1 µM [inhibitor, single point] |  |  |
| COc1cccc(CCC(=O)N2CCC(Cc3nc(C4CC4)n[nH]3)CC2)c1 |  |  | inactive |
| O=C(Nc1ccc2c(N3CCCCC3)ncnc2c1)C1CCC1 | inconclusive: 39.8 µM [inhibitor, partial curve, poor fit] |  |  |
| O=C(c1ccc[nH]1)N1CCCC(n2cc(-c3nc(-c4ccccc4)no3)nn2)C1 (stereo unspecified) | inconclusive: 79.4 µM [inhibitor, partial curve] |  |  |
| O=C(NCc1ccncc1)C1CCc2nc(N3CCN(C(=O)C4CCC4)CC3)sc2C1 (stereo unspecified) | inconclusive: 100 µM [inhibitor, single point] |  |  |
| COc1ccc(CN(C(=O)c2ccco2)c2ccc(CC(=O)NCc3ccc(F)cc3)cc2)cc1 | inconclusive: 22.4 µM [inhibitor, full curve, poor fit] |  |  |
| CC1(C(=O)NCC2CCCO2)CCCc2cnc(Nc3ccccc3)nc21 (stereo unspecified) | inconclusive: 112 µM [inhibitor, single point] |  |  |
| O=C1CCC(C(=O)N(CC2CCN(Cc3ccccc3F)CC2)CC2CCCO2)=NN1 (stereo unspecified) |  | inactive: -7.39% |  |
| CC(C)C1=NOC2(CCN(Cc3ccc(C(F)(F)F)cc3)CC2)C1 | inconclusive: 20 µM [inhibitor, full curve, poor fit] |  |  |
| O=C(c1cccnc1)N1CCOC[C@H](Oc2ccc(C(F)(F)F)cn2)C1 |  | inactive: -23.3% [at 172 µM] |  |
| CC(C)Cn1ccc2c(NC(=O)CC[C@H]3NC(=O)c4ccccc4NC3=O)cccc21 | inconclusive: 89.1 µM [inhibitor, single point] |  |  |
| O=C(NCc1ccc(-c2ccccc2)cc1)[C@H]1CCC[C@H](O)C1 | inconclusive: 50.1 µM [inhibitor, partial curve, poor fit] |  |  |
| CSc1ccc(-c2cccc(CN3CCC(NC(=O)c4ccc(C(F)(F)F)cc4)CC3)c2)cc1 | inconclusive: 56.2 µM [inhibitor, partial curve, poor fit] |  |  |
| Cc1cnc(CCNC(=O)c2ccnn2C)n1CC1CC1 |  | inactive: -15.3% |  |

| Structure (SMILES) | Potency | activity change, negative = cytotoxicity | outcome |
| --- | --- | --- | --- |
| COc1ccc(C(=O)N[C@H]2[C@H](O)[C@H](O)C[C@@H]2c2ccc(C(F)(F)F)cc2)cc1OC | inconclusive: 100 µM [inhibitor, partial curve] |  |  |
| COc1cccc(NC(=O)CCC2CCN(Cc3noc(C4CC4)n3)CC2)c1 | inconclusive: 79.4 µM [inhibitor, partial curve, poor fit] |  |  |
| O=C(NCCCc1ccccc1)c1cc2n(n1)CC(c1ccc3c(c1)OCO3)OC2 (stereo unspecified) | inconclusive: 44.7 µM [inhibitor, partial curve, poor fit] |  |  |
| O=C(CC1CCCN(c2cn[nH]c(=O)c2)C1)NC1CCN(Cc2ccccc2)CC1 (stereo unspecified) |  | inactive: 7.13% |  |
| COCCCNC(=O)C1CCCCN1Cc1ccc(-c2ccsc2)cc1 (stereo unspecified) | inconclusive: 39.8 µM [inhibitor, partial curve, poor fit] |  |  |
| COc1ccc(NC(=O)C2CCN(c3ccnc4ccnn34)CC2)cc1 | inconclusive: 126 µM [inhibitor, single point] |  |  |
| Cc1ccc(S(=O)(=O)N2CCCC(Cn3c(C)nc4cccnc43)C2)cc1 (stereo unspecified) | inconclusive: 89.1 µM [inhibitor, partial curve, poor fit] |  |  |
| COc1cccc(CN2CCCN(S(=O)(=O)c3ccccc3)CCC(=O)NCC2)n1 |  | inactive: -7.69% |  |
| O=C(c1ccc(Cl)s1)N1CCC(n2cc(-c3nc(-c4ccccc4)no3)nn2)C1 (stereo unspecified) | inconclusive: 17.8 µM [inhibitor, full curve] |  |  |
| O=C(Cn1nc2c(cc1=O)CCCC2)N1CCN(c2ccc(C(F)(F)F)cn2)CC1 | inconclusive: 79.4 µM [inhibitor, single point] |  |  |
| COc1cc(CN2CCc3nc(N(C)C)[nH]c(=O)c3CC2)cc(OC)c1OC |  | inactive: 3.4% |  |
| Cc1noc(-c2ccc3c(c2)OCO3)c1C(=O)NCCCc1ccccc1 | inconclusive: 50.1 µM [inhibitor, partial curve, poor fit] |  |  |
| O=c1cc(-c2ccncc2)oc2c(-c3cccc4[nH]ccc34)nccc12 | active: 25.1 µM |  |  |
| O=C(NCc1ccc(Cl)cc1)c1nc2sccn2c1-c1ccccc1 | inconclusive: 112 µM [inhibitor, partial curve, poor fit] |  |  |
| N#Cc1cccc(C(=O)N[C@H]2[C@H](O)[C@H](O)C[C@@H]2c2ccc(N3CCOCC3)nc2)c1 |  | inactive: -18.5% [at 172 µM] |  |
| O=C(NCc1cccc(F)c1)C1CCCCN1Cc1ccc(-c2cccs2)cc1 (stereo unspecified) | active: 20 µM |  |  |
| O=C(C1CC1)N1CCCC(C(=O)N2CCC(c3nc4ncccc4[nH]3)C2)C1 (stereo unspecified) |  | inactive: 4.45% |  |
| Cc1cccc(-c2nc3cnccn3c2NCCC(=O)NCc2ccc(F)c(Cl)c2)c1 | inconclusive: 79.4 µM [inhibitor, partial curve, poor fit] |  |  |
| COc1ccc(-c2onc(C)c2C(=O)NCc2cccs2)cc1 | inconclusive: 50.1 µM [inhibitor, partial curve, poor fit] |  |  |
| Cc1cc(OC2CN(Cc3ccnn3C)C2)ccc1F | inconclusive: 100 µM [inhibitor, partial curve, poor fit] |  |  |
| Cc1cc(C(=O)NCC2Cn3cccc3C(=O)N2CC(C)C)nn1C (stereo unspecified) |  | inactive: -15.6% |  |
| Cc1nn(-c2ccccc2)c2c1C(C)N(C1CCCN(C(=O)c3cccnc3)C1)C2=O (stereo unspecified) | inconclusive: 44.7 µM [inhibitor, partial curve, poor fit] |  |  |
